For 39 compounds, cytotoxicity call results are on record in the antibiotic and cytotoxicity screens of Wong et al. (2023).

Structures are written as SMILES. The list shows a part of the results.

The first assay concerns HSkMC (human skeletal muscle cells). The experiment in a line: cytotoxicity call (relative viability < 0.9). The note with it: 10 µM.
Turning to `CO[C@@H]1C=C[C@@H]2[C@H]1N2CCCO` (stereo partly drawn), the cytotoxicity call is “inactive”.
With `CCOc1ccc(N2CCNCC2)nn1`, the cytotoxicity call was “inactive”.
Turning to `CC(C)(O)C1C2OC(=O)C1C1(O)CC3OC34C(=O)OC2C14C` (stereo not drawn), the cytotoxicity call is “inactive”.
Take `CNCC(O)c1ccc(O)cc1.CNCC(O)c1ccc(O)cc1.O=C(O)C(O)C(O)C(=O)O` (stereo not drawn): the cytotoxicity call is “inactive”.
As for `Cc1scc(CCN)c1C`, the cytotoxicity call was “inactive”.
As to `N[C@@H](Cc1ccc(O)cc1)C(=O)NCC(=O)NCC(=O)O`, the cytotoxicity call was “inactive”.
`c1cncc(N2CCNCC2)c1`: the cytotoxicity call is “inactive”.
Take `CC1(C)C(C=C(Cl)Cl)C1C(=O)OCc1cccc(Oc2ccccc2)c1` (stereo not drawn): the cytotoxicity call is “inactive”.
Still for that read-out and setting: as for `CCCCCCCCCCCCCC(=O)O[C@@H]1[C@@H](C)[C@@]2(O)[C@@H](C=C(CO)C[C@]3(O)C(=O)C(C)=C[C@@H]23)[C@@H]2C(C)(C)[C@]12OC(C)=O`, the entry is “active”.
With `FCCN1C[C@H]2CCN[C@H]2C1`, the cytotoxicity call is “inactive”.
In the case of `CC1(C)CCNC1=O`, the cytotoxicity call is “inactive”.
On to `C[C@@H]1CN([C@H](C)CO)C(=O)CCCn2cc(nn2)CO[C@@H]1CN(C)C(=O)Oc1cccc2ccccc12`, for which the cytotoxicity call is “inactive”.
The same measure, in the same setting: the value for `COc1cc2occc2c2oc(=O)ccc12` was “inactive”; that for `CC(C)(C)C(O)(CCc1ccc(Cl)cc1)Cn1cncn1` (stereo not drawn) was “inactive”; that for `O=C(NC[C@@H]1CC[C@H]2NC[C@H]2O1)C1CCCC1` was “inactive”.
Regarding `CCOCC(=O)N[C@H]1CCSC1=O`, the cytotoxicity call was “inactive”.
Same read-out and setting: the value for `N=C(N)NOCCC(N)C(=O)O` (stereo not drawn) was “inactive”; that for `COCC12CN(C=O)C3C4C(OC)C1C3(C(OC)CC2O)C1CC2(O)C(OC)C(O)C4(OC(C)=O)C1C2OC(=O)c1ccccc1` (stereo not drawn) was “inactive”.
Regarding `COP(=O)(OC)OC=C(Cl)Cl`, the cytotoxicity call is “inactive”.
Turning to `CC(C(O)c1ccccc1)N(C)C` (stereo not drawn), the cytotoxicity call is “inactive”.
As to `C[C@@H]1[C@H](O)[C@@H](C)/C=C\C=C/CC\C=C/C=C\C=C/C=C\[C@@H](O[C@@H]2O[C@H](C)[C@@H](O)[C@H](N)[C@@H]2O)C[C@@H]2O[C@](O)(C[C@@H](O)[C@H](O)CC[C@@H](O)C[C@@H](O)C[C@@H](O)CC(=O)O[C@H]1C)C[C@H](O)[C@H]2C(=O)O`, the cytotoxicity call was “inactive”.
Still for that read-out and setting: the value for `CS(=O)(=O)C1C[C@H]2CC[C@@H](C1)N2` (stereo partly drawn) was “inactive”.
Consider `CC[C@@H](N)[C@@H](O)c1ccc(O)c(O)c1`, for which the cytotoxicity call is “active”.
For the compound `CC(C)N1CCO[C@H]2CN(C(=O)N(C)C)C[C@@H]21`, the cytotoxicity call is “inactive”.

The subject of another assay is HepG2. The experiment in a line: cytotoxicity call (relative viability < 0.9). The note with it: 10 µM.
With `CCOCC(=O)N1C[C@H]2CNC[C@H]2C1`, the cytotoxicity call is “inactive”.
Take `CC1OC(OC2C(O)C(O)C(O)C(O)C2O)C(N)CC1NC(=N)C(=O)O.Cl` (stereo not drawn): the cytotoxicity call is “inactive”.
With `C[C@H](O)[C@]12[C@@H]3CC=C[C@H]1N2CC3` (stereo partly drawn), the cytotoxicity call was “inactive”.
With `CC(=O)c1c(O)c(C)c(O)c(Cc2c(O)c3c(c(C(=O)/C=C/c4ccccc4)c2O)OC(C)(C)C=C3)c1O`, the cytotoxicity call is “inactive”.
On to `S=C=NCc1ccccc1`, for which the cytotoxicity call is “active”.
On to `O=C(O)[C@H]1C[C@H]2CCCCN2C1`, for which the cytotoxicity call is “inactive”.
`[N-]=[N+]=NCc1ccccc1C[C@]1(C(=O)NCc2ccccc2)N=C(c2ccc(OCCCO)cc2)O[C@H]1c1ccccc1N=[N+]=[N-]`: the cytotoxicity call was “active”.
Same read-out and setting: the value for `Cc1ccc(C2(CN)CCCCC2)cc1` was “inactive”; that for `COC1C(O)C(C)OC(OC2CCC3(C=O)C(CCC4C3CCC3(C)C(C5=CC(=O)OC5)CCC43O)C2)C1O` (stereo not drawn) was “active”.
Regarding `Cc1[nH]c2ccccc2c1CCN`, the cytotoxicity call is “inactive”.
`CCOc1ccc(CN)cn1`: the cytotoxicity call is “inactive”.
As for `CC(=O)O[C@H]1C[C@H](O[C@H]2[C@@H](O)C[C@H](O[C@H]3[C@@H](O)C[C@H](O[C@H]4CC[C@@]5(C)[C@@H](CC[C@H]6[C@@H]5C[C@@H](O)[C@]5(C)[C@@H](C7=CC(=O)OC7)CC[C@]65O)C4)O[C@@H]3C)O[C@@H]2C)O[C@H](C)[C@H]1O[C@@H]1O[C@H](CO)[C@@H](O)[C@H](O)[C@H]1O`, the cytotoxicity call was “active”.
Take `O=c1n(Cl)c(=O)n(Cl)c(=O)n1Cl`: the cytotoxicity call was “inactive”.
With `CCOP(=S)(OCC)Oc1ccc2c(C)c(Cl)c(=O)oc2c1`, the cytotoxicity call is “inactive”.
On the same count and under the same terms, as for `CC(C)[C@@]1(NC(=O)[C@H]2C[C@@H]3c4cccc5[nH]cc(c45)C[C@H]3N(C)C2)O[C@@]2(O)[C@H]3CCCN3C(=O)[C@@H](Cc3ccccc3)N2C1=O`, the entry is “inactive”; as for `CO[C@@H]1C=C[C@@H]2[C@H]1N2CCCO` (stereo partly drawn), “inactive”; as for `CCOc1ccc(N2CCNCC2)nn1`, “inactive”.
`CC(C)(O)C1C2OC(=O)C1C1(O)CC3OC34C(=O)OC2C14C` (stereo not drawn): the cytotoxicity call is “inactive”.
Regarding `CNCC(O)c1ccc(O)cc1.CNCC(O)c1ccc(O)cc1.O=C(O)C(O)C(O)C(=O)O` (stereo not drawn), the cytotoxicity call was “inactive”.
Regarding `Cc1scc(CCN)c1C`, the cytotoxicity call was “inactive”.
As for `N[C@@H](Cc1ccc(O)cc1)C(=O)NCC(=O)NCC(=O)O`, the cytotoxicity call was “inactive”.
For the compound `c1cncc(N2CCNCC2)c1`, the cytotoxicity call was “inactive”.
Take `CC1(C)C(C=C(Cl)Cl)C1C(=O)OCc1cccc(Oc2ccccc2)c1` (stereo not drawn): the cytotoxicity call is “inactive”.
In the case of `CCCCCCCCCCCCCC(=O)O[C@@H]1[C@@H](C)[C@@]2(O)[C@@H](C=C(CO)C[C@]3(O)C(=O)C(C)=C[C@@H]23)[C@@H]2C(C)(C)[C@]12OC(C)=O`, the cytotoxicity call was “active”.
As for `FCCN1C[C@H]2CCN[C@H]2C1`, the cytotoxicity call was “inactive”.
As for `CC1(C)CCNC1=O`, the cytotoxicity call was “inactive”.
Turning to `C[C@@H]1CN([C@H](C)CO)C(=O)CCCn2cc(nn2)CO[C@@H]1CN(C)C(=O)Oc1cccc2ccccc12`, the cytotoxicity call is “inactive”.
Turning to `COc1cc2occc2c2oc(=O)ccc12`, the cytotoxicity call is “inactive”.
With `CC(C)(C)C(O)(CCc1ccc(Cl)cc1)Cn1cncn1` (stereo not drawn), the cytotoxicity call is “inactive”.
The same measure, in the same setting: the value for `O=C(NC[C@@H]1CC[C@H]2NC[C@H]2O1)C1CCCC1` was “inactive”; that for `CCOCC(=O)N[C@H]1CCSC1=O` was “inactive”; that for `N=C(N)NOCCC(N)C(=O)O` (stereo not drawn) was “inactive”.
On to `COCC12CN(C=O)C3C4C(OC)C1C3(C(OC)CC2O)C1CC2(O)C(OC)C(O)C4(OC(C)=O)C1C2OC(=O)c1ccccc1` (stereo not drawn), for which the cytotoxicity call was “inactive”.
`COP(=O)(OC)OC=C(Cl)Cl`: the cytotoxicity call is “inactive”.
Same read-out and setting: as for `CC(C(O)c1ccccc1)N(C)C` (stereo not drawn), the entry is “inactive”; as for `C[C@@H]1[C@H](O)[C@@H](C)/C=C\C=C/CC\C=C/C=C\C=C/C=C\[C@@H](O[C@@H]2O[C@H](C)[C@@H](O)[C@H](N)[C@@H]2O)C[C@@H]2O[C@](O)(C[C@@H](O)[C@H](O)CC[C@@H](O)C[C@@H](O)C[C@@H](O)CC(=O)O[C@H]1C)C[C@H](O)[C@H]2C(=O)O`, “inactive”.
In the case of `CS(=O)(=O)C1C[C@H]2CC[C@@H](C1)N2` (stereo partly drawn), the cytotoxicity call was “inactive”.
As to `CC[C@@H](N)[C@@H](O)c1ccc(O)c(O)c1`, the cytotoxicity call is “inactive”.
`CC(C)N1CCO[C@H]2CN(C(=O)N(C)C)C[C@@H]21`: the cytotoxicity call was “inactive”.
